# Measured values published in PubChem BioAssay (NCATS).
# The inconclusive results got no clear call from the source; some entries with a clear call stand among them for comparison. Potencies beside an inconclusive call are fits to weak or partial responses and may not hold up. Calls of active or inactive are those of the source. The call rests on the fitted dose curve; in most records, active means well fitted cell-killing curve with a large enough effect; inconclusive means small, poorly fitted or top-dose-only effect, or effect the other way; inactive means no such curve, though single readings can be large or run the other way.
# Legend:
# [1] = Viability qHTS for spleen associated tyrosine kinase inhibitor (SYKi) naive MV4-11 cells (AID 1963823); conditions: MV4-11 AML viability, CellTiter-Glo luminescence, 72 h; viability (% of control): at 45 µM (top of the series); further: nearly all actives have a fitted effect of over 40% in size
# Summary of the method: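 SYKi-naive MV4-11 AML cells, 500 per well, were exposed to library compounds for 72 hr at 37 C, 5% CO2. Viability was then read by CellTiter-Glo luminescence after 10 min at room temperature.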
# [2] = Viability qHTS for spleen associated tyrosine kinase inhibitor (SYKi) drug resistant MV4-11 cells (AID 1963824); conditions: SYKi-resistant MV4-11 viability, CellTiter-Glo, 72 h; series mostly up to 45 µM; further: nearly all actives have a fitted effect of over 35% in size
# Summary of the method: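 SYK inhibitor-resistant MV4-11 AML cells, 500 per well, added to predispensed compounds and incubated 72 hr at 37 C, 5% CO2. Viability measured by CellTiter-Glo luminescence after 10 min at room temperature.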
# Potency means the concentration at half of the fitted maximal effect; tags describe the fitted curve by direction and shape.
SMILES,Potency [1],Potency [2],viability (% of control) [1]
O=C(NC[C@H]1CN(c2ccc(N3CCOCC3=O)cc2)C(=O)O1)c1ccc(Cl)s1,"inconclusive: 13 µM [cytotoxic, partial curve]","inconclusive: 13 µM [cytotoxic, partial curve]",
CC(C)(Cc1nc(-c2ccc(O)cn2)no1)C(=O)NC1=C(C(=O)O)CCCC1,inactive,inactive,
CC1(C)CCC(C)(C)c2cc3c(cc21)Sc1ccccc1N=C3c1ccc(C(=O)O)cc1,inactive,"inconclusive: 0.0041 µM [cytotoxic, full curve, poor fit]",
COc1ccc(CCc2nc3cc(-c4c(C)noc4C)ccc3n2CC(C)N2CCOCC2)cc1Cl (configuration not stated),active: 4.11 µM,active: 5.17 µM,
NCc1ccccc1Sc1ccccc1CO,"inconclusive: 29.9 µM [cytotoxic, single point]","inconclusive: 16.8 µM [cytotoxic, single point]",
COc1cc2ncnc(Nc3ccc(NC(=O)c4ccccc4)cc3)c2cc1OC,"inconclusive: 4.11 µM [cytotoxic, partial curve]",active: 4.61 µM,
COc1ccc(-c2cc3onc(-c4ccncc4)c3c(=O)n2C)cc1,"inconclusive: 0.291 µM [cytotoxic, full curve]","inconclusive: 0.461 µM [cytotoxic, full curve]",
Oc1cccc(C2NC(=S)Nc3cccc(F)c32)c1 (configuration not stated),active: 4.61 µM,active: 2.91 µM,
CCCCCOC(=O)Nc1nc(=O)n(C2O[C@H](C)[C@@H](O)[C@H]2O)cc1F (some centres not stated),inactive,"inconclusive: 20.6 µM [cytotoxic, partial curve, poor fit]",
CC1=CCC(C(C)(C)O[C@@H]2O[C@H](CO[C@@H]3O[C@@H](C)[C@H](O)[C@@H](O)[C@H]3O)[C@@H](O)[C@H](O)[C@H]2O)CC1 (some centres not stated),inactive,inactive,
CC(C)c1ccc2c(c1)C(=O)CC1C(C)(C(=O)O)CCCC21C (configuration not stated),"inconclusive: 10.1 µM [cytotoxic, single point]","inconclusive: 14.3 µM [cytotoxic, single point]",
CCc1c(C)nc2c(-c3cnn(-c4cc(CO)ccn4)c3)c[nH]n2c1=O,inactive,inactive,
CC(=O)[C@@]1(O)CC[C@H]2[C@@H]3C[C@H](C)C4=CC(=O)C=C[C@]4(C)[C@@]3(F)[C@@H](O)C[C@@]21C,inactive,"inconclusive: 0.0084 µM [cytotoxic, full curve, poor fit]",
Cc1cccc(-c2[nH]ncc2-c2ccc(F)c(-c3cnn(CCO)c3)c2)n1,"inconclusive: 14.6 µM [cytotoxic, partial curve]","inconclusive: 9.2 µM [cytotoxic, partial curve, poor fit]",
COc1ccc2c(c1)OC[C@]1(O)c3cc4c(cc3O[C@H]21)OCO4,inactive,inactive,
CC1OC(OC2C(OC(=O)[C@]34CCC(C)(C)C[C@H]3C3=CCC5[C@@]6(C)CC[C@H](OC7OC(C(=O)O)C(O)C(O)C7O)C(C)(C)C6CC[C@@]5(C)[C@]3(C)CC4O)OC(CO)C2O)C(O)C(O)C1OC1OCC(O)C(O)C1O (some centres not stated),,"inconclusive: 1.38 µM [cytotoxic, partial curve, poor fit]",inactive: 70.8% [at 9.25 µM]
O=C(NCCCc1ccccc1)c1cccc(-c2cc(O)c3ncccc3c2)c1,"inconclusive: 2.06 µM [cytotoxic, full curve]","inconclusive: 3.66 µM [cytotoxic, full curve]",
C[C@H]1CCN2C[C@]34C[C@@]5(C(=O)Nc6c5ccc5c6OC=CC(C)(C)O5)C(C)(C)C3C[C@]12C(=O)N4C (some centres not stated),"inconclusive: 8.93 µM [cytotoxic, single point]","inconclusive: 5.63 µM [cytotoxic, partial curve]",
CC(=O)OC1CC2(C)C(CCC(C)C23Cc2c(O)cc(CO)c(C=O)c2O3)C(C)(C)C1O (configuration not stated),"inconclusive: 6.32 µM [cytotoxic, partial curve, poor fit]","inconclusive: 0.0252 µM [cytotoxic, full curve, poor fit]",
CC(C)CCNC(=O)[C@H](CC(C)C)NC(=O)[C@H]1O[C@@H]1C(=O)O,inactive,inactive,
CCC(Cc1c(I)cc(I)c(N)c1I)C(=O)O (configuration not stated),inactive,inactive,
